# Assay results from publication PMC12040169 (PLOS Biology, 2025).
# Some of the results follow.
# Tested on: T1, C. trachomatis L2/434/Bu expressing GFP (CTL2-GFP)
# T1 construct: L2/434/Bu GFP intracellular growth in HeLa cells
# Set-up: species or system HeLa; C. trachomatis total inclusion area by high-content imaging, normalised to DMSO
# Conditions: total inclusion area; 28.5 h, 10 µM; inhibitor
# Outline: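 Imaging read-out: GFP inclusions and Hoechst nuclei captured by high-content imaging after fixation. Inclusion area/number = chlamydial growth; nuclei count = host cell viability. MIC calculated per earlier method.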
row,Compound,% of control remaining
1,COc1cc2c(cc1CNC1CCCc3c1cnn3C)OC(C)C2 (stereo not shown) [CBK304296C],53.0142
2,Cc1nn(-c2ccc(F)cc2)c2c1C(c1ccc(C(=O)O)cc1)CC(=O)N2 (stereo not shown) [CBK286561],82.6317
3,O=C(O)C[C@@H]1CCN(C(=O)NCc2ccccc2)C[C@@H]1CC1=NCCc2ccccc21 [CBK289161],110.929
4,Cc1cc(NS(=O)(=O)c2cc(C(=O)O)c(Cl)cc2F)n(C)n1 [CBK067260],102.138
5,CCCn1ncc(CN[C@@H]2CCC[C@H]2Cc2cc(C)no2)c1C [CBK282948],95.3563
6,COc1ccc2c(c1)cc(C(=O)N(C)CCCn1nc(C)cc1C)n2C [CBK307196],90.552
7,O=C(NCCOCc1ccc(Cl)cc1)c1cc(-n2cnnc2)ccc1Cl [CBK267939],102.886
8,N#Cc1ccccc1NC(=O)CSc1nc2cc(Cl)ccc2[nH]1 [CBK270019],70.5123
9,O=C(CSc1ncccc1C(=O)O)Nc1nnc(Cc2ccccc2)s1 [CBK299835],79.1802
10,Cc1cccc(C(=O)Nc2ccc(-c3nnc(-c4ccc(NC(=O)c5cccc(C)c5)cc4)o3)cc2)c1 [CBK261603],94.4445
11,COCCNc1nc(-c2cc(C(C)C)ccc2OC)ccc1C(=O)Nc1cccc(OC)c1 [CBK105904],86.3056
12,O=C(Cn1ncc2cccn2c1=O)OC1CCCCC1 [CBK283667],90.6224
13,COc1ccc(-c2noc(CNC(=O)Nc3ccccc3)n2)cc1OC [CBK269900],126.771
14,O=C(O)c1ccc(N2C(=O)C(=Cc3c4ccccc4cc4ccccc34)SC2=S)cc1 [CBK296101],78.0411
15,CCn1cc(CN(CCCN(C)C)Cc2ccc(C)o2)c(C)n1 [CBK283201],93.1196
16,CN(CC(=O)NCc1ccc(Cl)cc1)S(=O)(=O)Cc1ccc(C#N)cc1 [CBK305899],78.6045
17,O=S(=O)(c1cccs1)N1CCC2(CC1)OCCO2 [CBK057295],87.4203
18,Cn1nccc1C(=O)NC(Cc1ccsc1)c1nccs1 (stereo not shown) [CBK285138],77.7407
19,COc1ccc(C2CC(=O)C3=C(C2)NC(C)=C(C#N)C3c2cccc(F)c2)cc1 (stereo not shown) [CBK293922],117.367
20,CC(Cn1cccn1)C(=O)Nc1cccc(N2CCCC2)c1 (stereo not shown) [CBK283249],116.263
21,O=C(COc1nc2cc3c(nc2o1)CCC3)c1ccccc1 [CBK269407],89.1206
22,CN(C)Cc1c(O)ccc2occ(C(=O)c3cccs3)c12 [CBK261959C],98.2899
23,Cc1ccc(S(=O)(=O)c2cccc(S(=O)(=O)N3CCOCC3)c2)cc1S(=O)(=O)N1CCOCC1 [CBK262117],83.1032
24,CCOc1cc(OCC)cc(C(=O)N2CCC3(CC2)NC(=O)c2cc(I)ccc2O3)c1 [CBK166301],43.1761
25,Cc1ncsc1CCOc1nccnc1NC(C)C [CBK115728],102.44
26,O=C(O)c1ccc(/C=C/C(=O)c2ccc3c(c2)OCCO3)cc1 [CBK262173],85.7377

row,Compound,% of control remaining
1,CN(CCN1CCCCC1)C(=O)C1(c2ccc(F)cc2)CC1 [CBK282178],77.134
2,CC(C)(C)OC(=O)N1CCN(C(=O)c2cc(-c3cccnc3)on2)CC1 [CBK305648],83.0151
3,O=C(CN1CCCC1)N1CCCC1c1nc2ccccc2[nH]1 (stereo not shown) [CBK284003],95.7713
4,Clc1ccc(OCCOc2cncc(N3CCCC3)n2)cc1 [CBK115668],98.4768
5,CCN1CCN(c2ccc(NC(=S)NC(=O)c3ccccc3Br)cc2)CC1 [CBK268583],60.6182
6,CC(=O)Nc1ccc(F)c(NC(=O)NCCN2CCCOC2=O)c1 [CBK307166],77.5707
7,O=C(Nc1ccc(N2CCN(C(=O)c3ccco3)CC2)cc1)c1cccnc1 [CBK270034],84.7772
8,CN(Cc1nnc(-c2ccc(C(C)(C)C)cc2)o1)C(=O)C1CCCO1 (stereo not shown) [CBK307597],85.9201
9,CCOc1cc(NC(=O)N2CCC(Cc3cnn(C)c3)C2)ccc1C (stereo not shown) [CBK305295],14.6286
10,Cc1nc2ccc(C(=O)NCCCc3ccccn3)cc2s1 [CBK282478],111.502
11,Nc1nc(N)c(Cc2ccc(Cl)cc2Cl)c(N)n1 [CBK009425],71.361
12,COc1cccc(/C=C\c2[nH]c(=O)[nH]c(=O)c2[N+](=O)[O-])c1OCC(=O)O [CBK266822],146.136
13,CCNc1ccn([C@H]2C[C@@H](O)[C@@H](CO)O2)c(=O)n1 [CBK201311],86.141
14,O=c1cc(O)c2ccccc2n1Cc1ccccc1F [CBK291162],117.532
15,Cc1cnc2[nH]c(C(F)(F)F)c(CN3CCOCC3)c2c1 [CBK284766],121.734
16,CCCN1CCC(CNC(=O)c2cc3c(OC)cccc3n2C)CC1 [CBK283255],105.228
17,CC(C)(O)c1cn(C2CN(C(=O)c3sccc3-c3ccccc3)C2)nn1 [CBK305442],45.8642
18,O=C(NCc1ccc(Cl)cc1)c1cnc2ccc(C#CCO)cc2c1O [CBK017979],88.0144
19,O=S(=O)(/N=C/N1CCCC1)c1ccccc1 [CBK023272],44.6526
20,O=C(Nc1ccc2c(c1)OCO2)c1cccc(I)c1 [CBK058308],62.2581
21,O=C(NCc1ccccc1)C(=O)NNC(=O)C12CC3CC(CC(C3)C1)C2 [CBK262951],106.86
22,CC1CN(CC(=O)NC(C)(C)c2ccccc2)CC(C)N1 (stereo not shown) [CBK051693],98.0035
23,CN(C(=O)CN1CCOC(Cn2cccn2)C1)C1(C#N)CCCCC1 (stereo not shown) [CBK305335],45.3333
24,CCc1c(C)nc(N)nc1N1N=C1SC(C(C)=O)C(C)=O [CBK268558],68.0938
25,COc1ccc(C=CC(=O)N(C)c2ccccc2C(=O)O)cc1 [CBK296135],114.542
26,O=C(N/N=C/c1cccnc1)C1CCCN(S(=O)(=O)c2ccccc2)C1 (stereo not shown) [CBK262712],103.034
